The values that follow come from ChEMBL document CHEMBL4888484, “Replenishing the malaria drug discovery pipeline: Screening and hit evaluation of the MMV Hit Generation Library 1 (HGL1) against asexual blood stage Plasmodium falciparum ,using a nano luciferase reporter read-out” (2022).

The campaign covered roughly 150,000 compounds. About 540 (0.36%) showed an effect of 50% or more. Some of the results follow.

This assay relates to Plasmodium falciparum. As to the kind of experiment: Primary screen in NF54 nanoGlo assay, in single point, at 2uM, 72h; a lower Z score goes with more inhibition. The class given is functional, Erythrocyte. As to conditions: timepoint 72 hour.
Broadly, the % Inhibition is the drop in the measured response relative to a control, in per cent. In the case of `Cc1cccc(Cl)c1NC(=O)N1CCS(=O)(=O)[C@@H](C)C1`, the “% Inhibition” value is given as -5% and the Z score came out at 0.54.

For the compound `CN1C[C@@H]2CC[C@H]1CN(Cc1ccc(S(C)(=O)=O)cc1)C2`, the “% Inhibition” value turned out to be 7% and the Z score is -1.57.

On to `O=C(NCc1ccncc1)[C@H]1CCCN(c2nnc3c(Cl)cccn23)C1`, for which the “% Inhibition” value is recorded as -13% and the Z score is on record as 1.43.

On to `CCCCN(C)S(=O)(=O)N1CCCCC1C(O)CC` (centres undefined), for which the “% Inhibition” value was -2% and the Z score turned out to be 0.33.

With `Cc1cc(NC(=O)c2ccccn2)n(-c2nc3ccccc3o2)n1`, the “% Inhibition” value turned out to be 89% and the Z score was -10.15.

Take `Cc1ccc(CC[C@H](C)NC(=O)N2CC(=O)N(C3CC3)C2)o1`: the “% Inhibition” value is recorded as -14% and the Z score was 1.22.

Regarding `O=C(c1ccco1)N1CCc2c(c(CO)nn2Cc2ccccc2)C1`, the “% Inhibition” value was -12% and the Z score is 1.58.

With `CN(C)Cc1ccc(-c2nc(N)nc3[nH]cnc23)cc1`, the “% Inhibition” value is given as -2% and the Z score amounted to 0.23.

In the case of `CC(C)(C)C[C@H](NC(=O)N1CCC(C#N)CC1)C(F)(F)F`, the “% Inhibition” value is given as -4% and the Z score was 0.43.

Turning to `CC1Cc2cc(F)ccc2C(C)N1Cc1cccc(C(=O)N(C)C)c1` (centres undefined), the “% Inhibition” value is on record as -12% and the Z score was found to be 1.68.

In the case of `Cc1ccc(NC(=O)N2Cc3nc[nH]c3C[C@H]2c2nc(-c3ccc(Cl)cc3)no2)cc1`, the “% Inhibition” value came out at 33% and the Z score was -3.74.

Regarding `C[C@H](NC(=O)CCc1nc2c([nH]1)c(=O)[nH]c(=O)n2C)C(C)(C)C`, the “% Inhibition” value worked out at 1% and the Z score was -0.11.

`Cc1oc(-c2ccccc2)nc1CN1CCC(O)(Cc2ccncc2)CC1`: the “% Inhibition” value is recorded as -14% and the Z score is 1.85.

As for `Cc1nc2c(s1)CCC[C@@H]2NC(=O)c1ccc(CCC(C)(C)O)cc1`, the “% Inhibition” value was -12% and the Z score is reported as 2.13.

As for `Cc1ccc(S(=O)(=O)Cc2cccc(-c3nc(-c4ccc(N5CCOCC5)cc4)no3)c2)cc1`, the “% Inhibition” value is -11% and the Z score worked out at 1.48.

With `CC(=O)NC1CCC(NC2CCC(C(F)(F)F)CC2)CC1` (centres undefined), the “% Inhibition” value is recorded as -3% and the Z score stood at 0.63.

Take `O=C1CN(C(=O)c2ccc(-c3ccccc3)[nH]c2=O)CCN1`: the “% Inhibition” value is -1% and the Z score is 0.1.

As to `O=C(CCc1ccc(S(=O)(=O)N2CCCC2)cc1)Nc1ccc2c(c1)OCCCO2`, the “% Inhibition” value is given as -7% and the Z score is reported as 1.07.

For the compound `Cc1ccnc(Nc2ccc(N3CCNCC3)nn2)c1`, the “% Inhibition” value was found to be 56% and the Z score is given as -6.55.

For the compound `O=C(N1CCCC1)N1CC[C@]2(O)CCN(c3nccc(C4CCCC4)n3)C[C@@H]2C1`, the “% Inhibition” value is -15% and the Z score is listed as 2.26.

`O=C(NCCC(c1ccccc1)c1ccccc1)c1ccc(S(=O)(=O)N2CCOCC2)cc1`: the “% Inhibition” value stood at 3% and the Z score is listed as -0.3.

Regarding `O=C(NC1CC(O)C(CO)C1)c1cc(-c2ccccc2)n[nH]1` (centres undefined), the “% Inhibition” value is given as -13% and the Z score is on record as 2.09.

Turning to `O=S(=O)(Cc1ccc(Cl)cc1)N1CCC[C@H](Oc2ccncn2)C1`, the “% Inhibition” value was 8% and the Z score is listed as -1.11.

Turning to `CCOc1ccc(CNC(=O)C2=CCN(Cc3ccc(F)cc3)CC2)cc1`, the “% Inhibition” value is -8% and the Z score stood at 1.51.

As for `CS(=O)(=O)c1cccc(S(=O)(=O)N(Cc2ccc(F)cc2)C2CCCCC2)c1`, the “% Inhibition” value is 0% and the Z score is -0.01.

With `O=C(NCc1cccs1)N1CCN(C(=O)c2cnn3ccccc23)CC1`, the “% Inhibition” value was -9% and the Z score amounted to 1.37.

In the case of `Cc1noc(C)c1CC(=O)Nc1ncnc2[nH]c(C)c(C)c12`, the “% Inhibition” value is -17% and the Z score is 1.6.

Consider `CCCc1nnc(C(=O)Nc2ccc(C(=O)NC3CCCCC3)cc2)s1`, for which the “% Inhibition” value is -19% and the Z score is recorded as 2.27.

As for `CN(C)[C@H]1CN(C2Cc3ccccc3C2)C[C@@H]1O`, the “% Inhibition” value is 1% and the Z score was -0.19.

With `N#C[C@@H](C(=O)c1ccccc1C(=O)c1ccc(F)cc1)c1ccccn1`, the “% Inhibition” value was -12% and the Z score was determined as 1.09.

For `Cc1csc(CNC(=O)c2cc(C)oc2C)n1`, the “% Inhibition” value was -10% and the Z score came out at 0.98.

On to `Cc1cc2c(cc1C)C(C(=O)N1CC(O)C3(CC3)C1)CO2` (centres undefined), for which the “% Inhibition” value is reported as -3% and the Z score is reported as 0.6.

Turning to `O=C(NCCn1cccn1)[C@@H]1CCCCc2n[nH]c(=O)n21`, the “% Inhibition” value is listed as -12% and the Z score was found to be 1.16.

On to `Cc1ncc(-c2nc(-c3ccccc3Br)no2)c(C)n1`, for which the “% Inhibition” value was 0% and the Z score is -0.03.

As to `CCO[C@H]1CN(CCC(=O)N2CCc3ccccc3C2)C[C@@H]1O`, the “% Inhibition” value was -11% and the Z score was 1.71.

As to `O=C(O)CN(Cc1ccccc1)C(=O)C1CC=CC1`, the “% Inhibition” value is recorded as -9% and the Z score is 1.35.

With `COc1cc(Cc2ncnn2-c2ccc(F)cc2)cc(OC)c1OC`, the “% Inhibition” value is -13% and the Z score is recorded as 1.63.

As for `C[C@H](NCc1cc(F)cc(F)c1)c1cccc(O)c1`, the “% Inhibition” value is recorded as 7% and the Z score is -0.75.

Regarding `CCOc1cc(CNC2CCCC2)cc(Br)c1OCc1ccccc1`, the “% Inhibition” value is 2% and the Z score was -0.21.

Turning to `C[C@H](OC(=O)c1ccnc(N(C)C)c1)C(=O)N1CCc2ccccc21`, the “% Inhibition” value was determined as 1% and the Z score is reported as -0.17.

Take `O=C(O)c1nn(-c2ccc(Br)cc2)c2c1CNCC2`: the “% Inhibition” value is listed as -4% and the Z score is 0.54.

Take `Cc1cc(CNC(=O)[C@H]2CCOC2)c(C)o1`: the “% Inhibition” value was -9% and the Z score amounted to 1.69.
